The values that follow come from publication PMC12820563, “FoxP3 forms a head-to-head dimer in vivo and stabilizes its multimerization on adjacent microsatellites”.

This is one part of the list.

The target in the test is T1, MBP-FoxP1dN (Mus musculus, UniProt P58462 326-579).
T1 sequence: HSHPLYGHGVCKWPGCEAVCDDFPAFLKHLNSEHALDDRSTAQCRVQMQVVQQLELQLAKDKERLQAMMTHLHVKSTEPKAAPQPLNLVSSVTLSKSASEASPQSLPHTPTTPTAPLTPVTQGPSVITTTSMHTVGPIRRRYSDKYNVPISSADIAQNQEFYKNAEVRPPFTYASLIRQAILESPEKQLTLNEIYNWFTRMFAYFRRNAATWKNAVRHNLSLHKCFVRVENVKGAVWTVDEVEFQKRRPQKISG
As to the kind of experiment: PD-seq (MBP pull-down with sequencing); 20 mM Tris-HCl pH 7.5, 100 mM NaCl, 1.5 mM MgCl2, 0.4 uM protein, 0.1 uM dsDNA library, 30 min, room temperature, amylose pull-down; high values mean tight binding. The note with it: protein: recombinant; tags: His6-MBP; chain copies: 2; dsDNA, one strand shown. Summed up: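 Amylose resin was used to capture complexes formed during 30 min at room temperature in Tris pH 7.5 buffer with NaCl and MgCl2 between 0.4 µM His6-MBP-tagged mouse FoxP3 or FoxP1 fragment lacking the N-terminus, expressed in E. coli, and 0.1 µM Klenow-filled double-stranded degenerate DNA library. After three washes, the DNA was released with proteinase K, barcoded by PCR and sequenced on Illumina. Binding is pooled-replicate reads-per-million enrichment, pull-down over input.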
For the sequence “GATGATTGTTCTCCCAGCTGATGAATTATATTCTTCGAGTAAACAAATTTTCCTAATCTTTCTGTTCAAGCGCCATCTAC”, the binding signal is 0.925 RPM ratio (pull-down/input).

Take “GATGATTGTTCTCCCAGCTGATGAATTTAAGGTCTCGAGTAAACAAATTTTCCTAATCTTTCTGTTCAAGCGCCATCTAC”: the binding signal is 0.831 RPM ratio (pull-down/input).

For the sequence “GATGATTGTTCTCCCAGCTGATGAATTTCGTCAGTCGAGTAAACAAATTTTCCTAATCTTTCTGTTCAAGCGCCATCTAC”, the binding signal was 0.896 RPM ratio (pull-down/input).

In the case of “GATGATTGTTCTCCCAGCTGATGAATTGATTGGGTCGAGTAAACAAATTTTCCTAATCTTTCTGTTCAAGCGCCATCTAC”, the binding signal was 0.965 RPM ratio (pull-down/input).

Take “GATGATTGTTCTCCCAGCTGATGAATTCCAGGAGTCGAGTAAACAAATTTTCCTAATCTTTCTGTTCAAGCGCCATCTAC”: the binding signal was 0.717 RPM ratio (pull-down/input).

“GATGATTGTTCTCCCAGCTGATGAATTTTCAAACTCGAGTAAACAAATTTTCCTAATCTTTCTGTTCAAGCGCCATCTAC”: the binding signal is 0.965 RPM ratio (pull-down/input).

“GATGATTGTTCTCCCAGCTGATGAATTGAAGACATCGAGTAAACAAATTTTCCTAATCTTTCTGTTCAAGCGCCATCTAC”: the binding signal was 0.967 RPM ratio (pull-down/input).

Turning to “GATGATTGTTCTCCCAGCTGATGAATTTTCGGGGTCGAGTAAACAAATTTTCCTAATCTTTCTGTTCAAGCGCCATCTAC”, the binding signal is 0.76 RPM ratio (pull-down/input).

For “GATGATTGTTCTCCCAGCTGATGAATTGGACCGTTCGAGTAAACAAATTTTCCTAATCTTTCTGTTCAAGCGCCATCTAC”, the binding signal is 0.846 RPM ratio (pull-down/input).

In the case of “GATGATTGTTCTCCCAGCTGATGAATTGGTAGGATCGAGTAAACAAATTTTCCTAATCTTTCTGTTCAAGCGCCATCTAC”, the binding signal is 0.922 RPM ratio (pull-down/input).

With “GATGATTGTTCTCCCAGCTGATGAATTGATGATCTCGAGTAAACAAATTTTCCTAATCTTTCTGTTCAAGCGCCATCTAC”, the binding signal is 0.99 RPM ratio (pull-down/input).

For “GATGATTGTTCTCCCAGCTGATGAATTGGCTTTTTCGAGTAAACAAATTTTCCTAATCTTTCTGTTCAAGCGCCATCTAC”, the binding signal was 0.947 RPM ratio (pull-down/input).

Consider “GATGATTGTTCTCCCAGCTGATGAATTACGTATATCGAGTAAACAAATTTTCCTAATCTTTCTGTTCAAGCGCCATCTAC”, for which the binding signal was 1.22 RPM ratio (pull-down/input).

As to “GATGATTGTTCTCCCAGCTGATGAATTCTAGGCGTCGAGTAAACAAATTTTCCTAATCTTTCTGTTCAAGCGCCATCTAC”, the binding signal is 0.889 RPM ratio (pull-down/input).

Turning to “GATGATTGTTCTCCCAGCTGATGAATTAACATGCTCGAGTAAACAAATTTTCCTAATCTTTCTGTTCAAGCGCCATCTAC”, the binding signal is 1.07 RPM ratio (pull-down/input).

As to “GATGATTGTTCTCCCAGCTGATGAATTATGGGCGTCGAGTAAACAAATTTTCCTAATCTTTCTGTTCAAGCGCCATCTAC”, the binding signal was 0.937 RPM ratio (pull-down/input).

“GATGATTGTTCTCCCAGCTGATGAATTAGCTCAGTCGAGTAAACAAATTTTCCTAATCTTTCTGTTCAAGCGCCATCTAC”: the binding signal was 0.833 RPM ratio (pull-down/input).

For “GATGATTGTTCTCCCAGCTGATGAATTTAAACATTCGAGTAAACAAATTTTCCTAATCTTTCTGTTCAAGCGCCATCTAC”, the binding signal is 1.12 RPM ratio (pull-down/input).

Take “GATGATTGTTCTCCCAGCTGATGAATTGCCTGTGTCGAGTAAACAAATTTTCCTAATCTTTCTGTTCAAGCGCCATCTAC”: the binding signal was 0.968 RPM ratio (pull-down/input).

With “GATGATTGTTCTCCCAGCTGATGAATTCTAAACCTCGAGTAAACAAATTTTCCTAATCTTTCTGTTCAAGCGCCATCTAC”, the binding signal is 0.907 RPM ratio (pull-down/input).

As to “GATGATTGTTCTCCCAGCTGATGAATTATAGTACTCGAGTAAACAAATTTTCCTAATCTTTCTGTTCAAGCGCCATCTAC”, the binding signal was 1.05 RPM ratio (pull-down/input).

Take “GATGATTGTTCTCCCAGCTGATGAATTGCTATCTTCGAGTAAACAAATTTTCCTAATCTTTCTGTTCAAGCGCCATCTAC”: the binding signal is 1.1 RPM ratio (pull-down/input).

For “GATGATTGTTCTCCCAGCTGATGAATTAGTGCCGTCGAGTAAACAAATTTTCCTAATCTTTCTGTTCAAGCGCCATCTAC”, the binding signal is 0.903 RPM ratio (pull-down/input).

Consider “GATGATTGTTCTCCCAGCTGATGAATTGTTTGCTTCGAGTAAACAAATTTTCCTAATCTTTCTGTTCAAGCGCCATCTAC”, for which the binding signal was 2.2 RPM ratio (pull-down/input).

For “GATGATTGTTCTCCCAGCTGATGAATTGCTTAAATCGAGTAAACAAATTTTCCTAATCTTTCTGTTCAAGCGCCATCTAC”, the binding signal was 1.19 RPM ratio (pull-down/input).

For the sequence “GATGATTGTTCTCCCAGCTGATGAATTACCTAACTCGAGTAAACAAATTTTCCTAATCTTTCTGTTCAAGCGCCATCTAC”, the binding signal is 1.03 RPM ratio (pull-down/input).

Turning to “GATGATTGTTCTCCCAGCTGATGAATTCGCGGGCTCGAGTAAACAAATTTTCCTAATCTTTCTGTTCAAGCGCCATCTAC”, the binding signal was 0.778 RPM ratio (pull-down/input).

As for “GATGATTGTTCTCCCAGCTGATGAATTCCTCTCATCGAGTAAACAAATTTTCCTAATCTTTCTGTTCAAGCGCCATCTAC”, the binding signal is 0.861 RPM ratio (pull-down/input).

On to “GATGATTGTTCTCCCAGCTGATGAATTTGTAATTTCGAGTAAACAAATTTTCCTAATCTTTCTGTTCAAGCGCCATCTAC”, for which the binding signal was 1.31 RPM ratio (pull-down/input).

Take “GATGATTGTTCTCCCAGCTGATGAATTACATATGTCGAGTAAACAAATTTTCCTAATCTTTCTGTTCAAGCGCCATCTAC”: the binding signal was 1.18 RPM ratio (pull-down/input).

Turning to “GATGATTGTTCTCCCAGCTGATGAATTGTCAGCATCGAGTAAACAAATTTTCCTAATCTTTCTGTTCAAGCGCCATCTAC”, the binding signal was 1.33 RPM ratio (pull-down/input).
